Assay results: publication PMC4336329 (PLoS ONE, 2015)
In all, about 310,000 compounds went through this assay and about 14,000 (4.5%) showed an effect of 50% or more. Effects have a minus sign here. The list shows a part of the results.

biological target: human ether-à-go-go-related gene (hERG) potassium channel (human, UniProt Q12809); test: primary screen, population patch clamp on CHO cells stably expressing hERG
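Note: peak tail current of the secondary pulse compared with the same well before compound.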

Chain of human ether-à-go-go-related gene (hERG) potassium channel (Q12809 whole entry, looked up): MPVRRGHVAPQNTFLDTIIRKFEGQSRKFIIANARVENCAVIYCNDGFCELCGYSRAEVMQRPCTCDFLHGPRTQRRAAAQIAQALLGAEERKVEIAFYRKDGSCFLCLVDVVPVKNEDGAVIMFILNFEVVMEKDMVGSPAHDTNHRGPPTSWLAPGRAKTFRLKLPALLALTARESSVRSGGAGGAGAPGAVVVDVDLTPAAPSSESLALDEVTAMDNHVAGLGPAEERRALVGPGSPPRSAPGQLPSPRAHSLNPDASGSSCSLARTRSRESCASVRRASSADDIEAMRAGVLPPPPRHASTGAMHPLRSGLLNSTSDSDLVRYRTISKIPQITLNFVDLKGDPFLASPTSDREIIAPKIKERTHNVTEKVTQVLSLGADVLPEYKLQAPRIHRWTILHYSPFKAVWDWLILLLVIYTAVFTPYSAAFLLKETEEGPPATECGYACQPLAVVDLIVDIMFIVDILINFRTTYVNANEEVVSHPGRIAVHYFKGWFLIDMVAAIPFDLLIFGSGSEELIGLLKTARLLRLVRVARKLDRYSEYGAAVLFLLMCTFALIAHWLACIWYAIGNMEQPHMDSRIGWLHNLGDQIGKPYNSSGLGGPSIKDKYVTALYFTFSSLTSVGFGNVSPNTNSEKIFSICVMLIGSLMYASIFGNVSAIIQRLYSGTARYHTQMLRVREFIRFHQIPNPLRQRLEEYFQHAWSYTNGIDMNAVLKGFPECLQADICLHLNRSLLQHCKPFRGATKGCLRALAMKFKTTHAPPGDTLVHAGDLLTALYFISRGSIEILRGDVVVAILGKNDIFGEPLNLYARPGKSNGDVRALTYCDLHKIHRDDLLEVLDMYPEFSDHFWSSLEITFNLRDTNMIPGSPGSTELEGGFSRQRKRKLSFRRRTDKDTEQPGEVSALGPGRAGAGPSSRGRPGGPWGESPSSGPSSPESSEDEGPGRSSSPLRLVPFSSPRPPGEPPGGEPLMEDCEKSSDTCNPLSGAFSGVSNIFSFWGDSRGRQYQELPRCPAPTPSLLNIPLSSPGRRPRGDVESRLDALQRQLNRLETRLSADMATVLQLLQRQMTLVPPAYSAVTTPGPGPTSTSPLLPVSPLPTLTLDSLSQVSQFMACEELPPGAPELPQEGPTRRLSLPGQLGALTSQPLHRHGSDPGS

Compound | hERG current change (%, negative = inhibition) at 10uM
CCOC(=O)C(CCCCCOc1ccc([N+](=O)[O-])cc1)C(=O)OCC | -50.4%
CCOC(=O)Nc1ccc(C(=O)/C=C/c2ccccc2)cc1 | -7.78%
c1ccc(-c2noc(CC3CCCCC3)n2)cc1 | 12.6%
Cc1ccc(NC(=O)CSc2sc3c(O)cc(=O)[nH]c3c2C#N)c(F)c1 | -12%
CCOc1ccc(N=C2NC(=O)S/C2=C\c2ccc(Cl)cc2)cc1 | 16.2%
CCc1ccc2oc(C(=O)N3CCN(c4ccccc4OC)CC3)cc(=O)c2c1 | -68.7%
O=C(CN1CCN(C2CCCCC2)CC1)c1ccc2cc[nH]c2c1 | -35.3%
Cc1ccc(S(=O)(=O)N(CC(=O)O)c2ccc(Cl)c(C(F)(F)F)c2)cc1 | 1.44%
Cc1ccccc1OCc1nnc(SCC(=O)NCc2ccccc2)n1C | -18.1%
O=C(Nc1nnc(SCCN2CCOCC2)s1)C1CC(=O)N(c2ccc(F)cc2)C1 (stereo not shown) | 19.3%
COc1ccc(CCNC(=O)c2ccc3c(=O)n(Cc4ccco4)c(=S)[nH]c3c2)cc1OC | 17.2%
CCCC(C)C(=O)Nc1nc(C)c(-c2csc(Nc3ccc(Cl)cc3)n2)s1 (stereo not shown) | 12.4%
Cc1ccc(O)c(N=Cc2ccc(C)s2)c1 | 19.7%
O=C(CSc1ncn[nH]1)Nc1nnc(-c2ccccc2)s1 | 17.3%
COc1ccc(Cl)cc1NC(=O)C1CCCO1 (stereo not shown) | -4.86%
Cc1ccccc1C(=O)NC1CCN(CC(=O)NCc2ccc(F)cc2)CC1 | -44.2%
Cc1cc(C)c(S(=O)(=O)N2CCOCC2)cc1C | 13.1%
Cc1cc(C)c(C#N)c(SCC(=O)CC(=O)OC(C)C)n1 | 1.82%
CCc1cccc(C)c1NC(=S)NCc1cccn1C | -2.94%
Cl.NCCC(=O)N1c2ccccc2Sc2ccc(Cl)cc21 | -10.8%
CC(Oc1ccc(-c2nnco2)cc1)C(=O)N1CCOCC1 (stereo not shown) | 18.2%
CC(=O)Nc1ccc(S(=O)(=O)Nc2ccc(S(=O)(=O)Nc3nccs3)cc2)cc1 | 14.3%

Compound | hERG current change (%, negative = inhibition) at 10uM
Cc1cccc(C)c1NCC(=O)N1CCN(Cc2ccccc2)CC1.Cl | -12.1%
CCc1ccc(N2C(=O)c3sc4nnc(-c5ccccc5)c(=O)n4c3C2=O)cc1 | -33.7%
CCCC(c1nnnn1Cc1cccs1)N1CCN(c2ccc(OC)cc2)CC1 (stereo not shown) | -6.58%
Cn1c(=O)n(C)c2cc(/C=C3/SC(=O)N(CC(=O)N4CCOCC4)C3=O)ccc21 | -11.3%
O=S(=O)(c1cccc2nonc12)N1CCCCC1 | 9.19%
COc1cccc(/C=C/C(=O)OCC(=O)c2ccc(S(=O)(=O)N3CCCCC3)cc2)c1OC | 3.54%
CCC(C)(C)NC(=O)C(c1ccco1)N(C(=O)Cn1nnc2ccccc21)c1ccc2c(c1)OCO2 (stereo not shown) | -10.2%
O=C(c1cccc2ccccc12)C1CCCN(Cc2ccon2)C1 (stereo not shown) | -29.3%
CCCCNC(=O)c1onc(CSc2ccc(C)c(C)c2)c1C(=O)O | 2.94%
Cc1ccnc(NS(=O)(=O)c2ccc(N=Cc3c(O)n(C)c(=O)n(C)c3=O)cc2)n1 | 14.3%
CC(C)c1c(C(=O)N/N=C2\CCc3ccccc32)nnn1-c1nonc1N | 19%
CC1(C)CC(=O)C2=C(C1)OC(N)=C(C#N)C2c1ccccc1[N+](=O)[O-] (stereo not shown) | -28.3%
Br.Cc1ccc2nc(-c3ccc(N4C(=N)SC5CS(=O)(=O)CC54)cc3)sc2c1 (stereo not shown) | 0.407%
Cc1ccc(S(=O)(=O)NC2=NCN(CCOC(=O)c3ccccc3)CN2)cc1 | 1.57%
Cl.NC(Cc1nc2ccccc2[nH]1)c1ccc(Cl)cc1 (stereo not shown) | -20.2%
CCNc1cc(Cl)nc(SC)n1 | -15.3%
Cc1c(CCC(=O)NCCCn2ccnc2)c(=O)oc2c(C)c3occ(C(C)(C)C)c3cc12 | -67%
COc1ccc(CC(=O)NC(C)(C)C)cc1S(=O)(=O)N1CCOCC1 | 10.3%
CC1(C(=O)NC2CCCC2)CCC(=O)N1CCC1=CCCCC1 (stereo not shown) | 5.41%
O=C(CCCNc1ccccc1)N/N=C/c1cccs1 | -9.99%
Cc1ccc(OCC(=O)NCc2ccco2)c([N+](=O)[O-])n1 | -6.51%
COc1cc2c3nnc(-c4ccc(F)cc4)c-3cn(Cc3cccc(C)c3)c2cc1OC | -1.27%

Compound | hERG current change (%, negative = inhibition) at 10uM
COc1ccc(OC)c(CC(NC(C)=O)C(=O)NC2CCN(c3nc(OC)nc(OC)n3)CC2)c1 (stereo not shown) | 31.8%
O=C(CSc1cn[nH]n1)Nc1ccccc1C(=O)O | 11.8%
CCCS(=O)(=O)N1CCC(C(=O)NCc2cccnc2)CC1 | 8.85%
Cc1cccnc1NC(=O)Cn1nc([N+](=O)[O-])cc1C | -2.42%
COc1cc2c(cc1OC)C(C(=O)NCCN(C)C)C(c1cccs1)N(C)C2=O (stereo not shown) | 2.79%
Cc1cnc(C(=O)Nc2ccc(S(=O)(=O)NCC(C)C)cc2)cn1 | 37.4%
Cc1c(NC2=NC3(CCCCC3)Cc3ccccc32)c(=O)n(-c2ccccc2)n1C | -14.3%
Br.Cc1cc(NS(=O)(=O)c2ccc(Nc3nc(-c4sc(NC(=O)c5ccccc5)nc4C)cs3)cc2)no1 | 5.2%
CC1=CC(C)(C)N2C(=O)C3(N=C(N)NC(Nc4ccccc4)=N3)c3cc(C)cc1c32 (stereo not shown) | -5.62%
COc1ccc(CCN2CC(C(=O)NCCc3ccccc3C)CCC2=O)cc1 (stereo not shown) | -29.9%
O=C(NN1C(=O)CSC1=S)C(=O)NN1C(=O)CSC1=S | 25.3%
OC1(c2ccccn2)COc2ccccc2O1 (stereo not shown) | -10.5%
COc1ccc(NC(=O)CN2CCC3(O)CCCCC3C2c2cc(OC)ccc2OC)cc1 (stereo not shown) | -14%
N#CC/C(N)=N/NC(=O)CCCNc1ncc(C(F)(F)F)cc1Cl | 17%
COc1ccccc1NS(=O)(=O)c1cccc(C(=O)NNC(=O)C(NC(N)=O)C(C)C)c1 (stereo not shown) | 3.59%
CCc1ccc(NC(=O)c2ccc(OC)c([N+](=O)[O-])c2)cc1 | -4.65%
C#CCOc1c(/C=C\c2nc(O)c([N+](=O)[O-])c(=O)[nH]2)cc(Br)cc1OC | 20.6%
COc1ccc(/C=C2\CCC/C(=C\C=N\N(C)C)C2=O)cc1 | 2.29%
Cc1ccc(/C=N/NC(=O)c2cc(C)oc2C)cc1 | 4.58%
CC1CCN(C(=O)CSc2ccc(-c3cccc([N+](=O)[O-])c3)nn2)CC1 | -49.6%
CN1CCN(CCCNC(=O)Cn2ncc3c4ccccc4n(C)c3c2=O)CC1 | 12%
O=C(CSc1nc(-c2ccco2)cc(C(F)(F)F)n1)NCC1CCCO1 (stereo not shown) | -4.45%

Compound | hERG current change (%, negative = inhibition) at 10uM
CCOC(=O)C1CCN(Cc2ccc(F)c(F)c2)CC1 | 11%
COC(=O)c1[nH]c2ccc(C)cc2c1NC(=O)NC1CCCCC1 | 8.55%
O=C(c1ccc(=O)[nH]n1)N1CCN(S(=O)(=O)c2ccc3ccccc3c2)CC1 | -2.3%
COC(=O)[C@@]12CCCCN1[C@H](c1ccc(-c3ccc(C(C)=O)cc3)c(OC)c1)[C@@H]1C(=O)N(C)C(=O)[C@@H]12.O=C(O)C(F)(F)F | 0.453%
CC(C)OCCCNC(=O)c1ccc2c(c1)S(=O)(=O)c1ccccc1C2=O | -21.9%
CCOC(=O)C1(Cc2ccccc2Cl)CCN(C(=O)c2cc(C)on2)CC1 | -34.8%
C[N+]1(CCCCCCC(=O)/C=N/O)CCCCCC1.[I-] | 15.6%
COc1cccc(NC(=O)CN(C)C(C)C(=O)Nc2ccc(C#N)cc2)c1 (stereo not shown) | -59.3%
COc1cccc(CNS(=O)(=O)c2c(C(=O)N3CCCCC3)c(C)n(C)c2C)c1 | 9.63%
O=C(Cc1ccccc1)N1CCCC(c2nc(-c3cccs3)no2)C1 (stereo not shown) | -7.1%
CC(C)(C)c1ccc(NS(=O)(=O)c2ccc(N)cc2)cc1 | 8.08%
COc1ccc(-n2cc(C(=O)O)c(=O)cc2C)cc1 | 5.98%
CN(C)c1ccc(-c2nnn(CC(=O)NCc3ccc4c(c3)OCO4)n2)cc1 | -0.969%
C/C(=C\C(=O)c1ccc(Br)cc1)N1CCCCC1 | -31.7%
N#Cc1ccccc1Sc1ccccc1C(=O)OCC(N)=O | 10.7%
COc1ccc(Cn2ccnc2SCC(=O)Nc2ccccc2F)cc1 | -6.04%
Cc1cc(OCc2cc(C(=O)NCCN3CCCCC3CO)no2)cc(C)c1Cl (stereo not shown) | -65.8%
COc1ccc(/C=N/NC(=O)c2nn(-c3ccc(Cl)cc3)c(=O)c3c(N)scc23)cc1 | 3.8%
Cc1cc(-c2onc(C)c2C(N)=O)no1 | 12.5%
O=C(c1ccccc1)N1CCN(c2ccc(N3CCOCC3)nn2)CC1 | -1.73%
CC(C)C(=O)NNS(=O)(=O)c1ccccc1 | 29%
COc1cc(/C=C/C(=O)OCC(=O)N2c3ccccc3NC(=O)C2(C)C)cc(OC)c1OC | -11.8%
